The record followed here is the RNAGym collection of RNA variant scans (doi:10.1073/pnas.2313332121).

B1: TPR 5TU (parent)
chain: GGAUCUUCUCGAUCUAACAAAAAAGACAAAUCUGCCACAAAGCUUGAGAGCAUCUUCGGAUGCAGAGGCGGCAGCCUUCGGUGGCGCGAUAGCGCCAACGUUCUCAACUAUGACACGCAAAACGCGUGCUCCGUUGAAUGGAGUUUAUCAUG

Variants at the floor of the assay are shown more often than the library holds them.

The variants in the data set derive from B1. Nature of the data set: polymerase ribozyme fitness, log enrichment relative to wild type (log ratio); higher = more active; in vitro selection for triplet polymerase activity. The gist of the method: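 Genotype fitness is the logarithm of its enrichment divided by wild-type enrichment, using inverse-variance-weighted averages of replicates. That logarithm is base 2. Enrichment was measured by Illumina sequencing of input and output libraries from one triplicate in vitro selection round, with frozen incubation at −7 °C, on PCR-built, transcribed mutant libraries of each subunit of a heterodimeric triplet polymerase ribozyme, retaining genotypes with ≥10 input reads and ≥1 read per output.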
As for GGAUCUUCUCGAUGUAACAAAAAAGACAAAUCUGCCACAAAGCUUGAGAGCAUAUUCGGAUGAAGAGGCGGCAGCCUUCGGUGGCGCGAUAGCGCCAACGUUCUCAACUACGACACGCAAAACGCGUGCUCCGUUGUAUGCAGUUUAUCAUG, the “polymerase ribozyme fitness (log ratio)” value was ≤ -4.2.

With GGAUCUUCUCGAUGUAACAAAAAAGACAAAUCUGCCACAAAGCUUGAGAGCAUCUUCGGAUGCAGAGGCGGCAGCCUUCGGUGGCGAGAUAGCGCCAACGUUCUCAACUAUGACACGCAAACCGCGUGCUCCGUUGAAUGGAGAUUAUCAUG, the “polymerase ribozyme fitness (log ratio)” value is ≤ -4.2.

As to GGAUCUUCUCGAUGUAACAAAAAAGACAAAUCUGUCACAAAGCUUGAGCGCAUCUUCGGAUGCAGAGGCGGCAGCCUUCGGUGGCGCGAUAACGCCAACGUUCUCAACUAUGACACGCAAAACGCGUGCUCCGUUGAAUGGAGUUUAUCAUG, the “polymerase ribozyme fitness (log ratio)” value is ≤ -4.2.

Take GGAUCUUCUCGAUGUAAGAAAAAAGACAAAUCUGCCACAAAGCUUAAGAGCGUCUUCGGAUGCAGAGGCGGCAGCGUUCGGUGGCGUGAUAGCGCCAACGUUCGCAACUAUGACACGCAAAACGCUUGCUCCGUUGAAUGGAGUUUAUCAUG: the “polymerase ribozyme fitness (log ratio)” value is ≤ -4.2.

As for GGAUCUUCUCGAUGUAACAAAAAAGACAAAUCUGCCACAAAGCUUGAGAGCAUCUUUGGAUGCAGAGGCGGCAGCCUUCGGUGGCGCGAUAGCGCCAACGUUCUCAACUAUGACACGCAAAACGCGUGCUCCGUUGAAUGGAGUUUAUCAUG, the “polymerase ribozyme fitness (log ratio)” value was -2.06.

As for GGAUCUUCUCGAUGUAACAAAAAAGACAAAUCUGCCACAAAGCUUGAGAGCAUCUUAGGAUGCAGAGGCGGCAGCCUUCGGUGGCGCGAUAGCGCCAACGUUCUCAACUAUGACACGCAAAACGCGUGCUCCGUUGAAUGGAGUUUAUCAUG, the “polymerase ribozyme fitness (log ratio)” value was -1.52.

Take GGAUCUUCUCGAUGUAACAAAAAAGACAAAUCUGCGACAAAGCUUGAGAGCGUCUUCGGAUGCAGAGGCGGCAGCCUUCGGUGGCGCGAUAGCGCCAACGUUCUCAACUAUGACACGCAAAACGCGUGCUCCCUUGAAUGGAGUUCACCAUG: the “polymerase ribozyme fitness (log ratio)” value was ≤ -4.2.

Turning to GGAUCUUCUCGAUGUAACAAAAAAGACAAAUCUGCCACAAAGCUUGAGAGCAUCUUCGGAUGCAGAGGCGGCAGACUUCGGUAGCGCGAUAGCGACAACGUUCUCAACUUUGACGCGCAAAACGCGUGCUCCGUUGAAUGGAGUUUAUCAUG, the “polymerase ribozyme fitness (log ratio)” value was ≤ -4.2.

In the case of GGAUCUUCUCGAUGUAAUAAAAAAGACAAAUCUGCCACAAAGCUUGAGAGCAUCUUCGGAUGCAGAGGCGGCAGUCAUCGGUGGCGCGAUAGGGCCAAUGUUCUCAACUAUGACACGCAAAACGCGUGGUCCGUUGAAUGGAGUUUAUCAUG, the “polymerase ribozyme fitness (log ratio)” value is ≤ -4.2.

For the variant GGAUCUUCUCGAUGUAACAAAAAAGACAAAUCUGUCACAAAGCUUGAGAGCAUGUUCGGAUGCAGAGGCGGCAGCCUUCGGUGGCGCGAUAGCGCCAACGUUCUCAACUAUGACACGCAAAACGCGUGCUCCCUUGAAUGGAGUUUAUCAUG, the “polymerase ribozyme fitness (log ratio)” value was ≤ -4.2.

Consider GGAUCUUCUCGAUGUAACAAAAAAGACAAAUCUGCCACAAAGCUUGAGAGCAUAUACGGAUGCAGAGGCGGCAGCCUUCGGUGGCGCGAUAGCGGCAAUGUUCUCAACUAUGACACGCAAAACGCGUGCUCCGUUGAAUGGAGUUUAUCAUG, for which the “polymerase ribozyme fitness (log ratio)” value is ≤ -4.2.

For GGAUCUUCUCGAUGUAACAAAAAAGAAAAAUCGGCCAGAAAGCUUGAGAGCAUCUUCGGAUGCAGAGGCGGCAGCCUUCGGUGGCGCGAUAGCGCGAACGUUCUCAACUAUGACCAGCAAAACGCGUGCUCCGUUGAAUGGAGUUUAUCAUG, the “polymerase ribozyme fitness (log ratio)” value was ≤ -4.2.

Consider GGAUCUUCUCGAUGUAACAAAAAAGACAAAUCUGCUACAAAGCUUGAGACCAUCUUCGGAUGCAGAGGCGGCAGCCUUCGGUGGCGCGAUAGCGCGAACGUUCUCAACUAUGAUACGCAAAACGCGUGCUCCGUUGAAUGGAGUUUAUCAUG, for which the “polymerase ribozyme fitness (log ratio)” value is ≤ -4.2.

As for GGAUCUUCUCGAUGUAACAAAAAAGACAAAUCUGCCAGAAAGCUUGAGAGCAUCUUCGGAUGCAGAGGUGGCAGCCUUCGGUGGUGUGAUAGCGCCAACGUUCUCAACUAUGACACGCAAAACGCAUGCUCCGUUGAAUGGAGUUUAUCAUG, the “polymerase ribozyme fitness (log ratio)” value is ≤ -4.2.

GGAUCUUCUCGAUGUAACAAAAAAGACAAAUCUGCCACAAAGCUUGAGAGGAUCUUCGGAUGCAGAGACGGCAGCCUUCGGUGGCGCGAUAGCGUCAACGUUCUCAACUAUGACACGCAAAACGCGCGCUCCGUUGAAUGGAGUUUAUCAUG: the “polymerase ribozyme fitness (log ratio)” value was ≤ -4.2.

GGAUCUUCUCGAUGUAACAAAAAAGACAAAUCUGCCACAAAGCUUGAGAGCAUCUUCGGAUGCAGAGGCGGCAGCCUUCGGUGGCGCGAUAGCGCCAACGUUCUCAGCUAUGACACGCAAAACGCGUGCUCCGUUGUAUGGAGUUUACCAUG: the “polymerase ribozyme fitness (log ratio)” value is ≤ -4.2.

GGAUCUUCUCGAUGUAAGAAAAAAGACAAAUCUGCCACAAAGCUUGAGAACAUCUUCGGAUGCAGAGGCGGCAGCCUUCGGUGGCGCGAUAACGCCAACGUUCUCAACUAUGACACGCAAAACGCGUGCUCCGUUGAAUGGAGUUUAUCAUG: the “polymerase ribozyme fitness (log ratio)” value is ≤ -4.2.

On to GGAUCUUCUCGAUGUAACAAAAAAGACAAAUCUGCCAUAAAGCUUGAGAGCAUCUUCGGAUGCAGAGGCGGCAGCCUUCGGUGGCGCGAUAGCGGCAACGUUCUCCACUAUGACACGCAAAACGCGUGCUCCGUUGAAUGGAGUUUAUCAUG, for which the “polymerase ribozyme fitness (log ratio)” value is -4.14.

In the case of GGAUCUUCUCGAUGUAACAAAAAAGACAAAUCUGCCAAAAAGCUUGAGAGCAUCUUCGGAUGCAGAGCCGACAGCCUUCGGUGGCGCGAUAGCGUCAACGUUCUCAACUAUGACACGCAAAACGCGUGCUCCGUUGAAUGGAGUUUAUCAUG, the “polymerase ribozyme fitness (log ratio)” value was ≤ -4.2.

Regarding GGAUCUUCUCGAUGUAACAAAAAAGAAAAAUCUGCCGCAAAGCUUGAGACCAUCUUCGGAUGCAGAGGCGGCAGCCUUCGGUGACGCGAUAGCGCCAAGGUUCUCAACUAUGACACGCAAAACGGGUGCUCCGAUGAAUGGACUUAAUCAUG, the “polymerase ribozyme fitness (log ratio)” value was ≤ -4.2.

In the case of GGAUCUUCUCGAUGUAACAAAAAAGAGAAAUCUGCCACAAAGCUUGAGAGCAUCUUCGUAUGCAGACGCGGCAGCCUUCGGUGGCGCAUUAGCGCCAACGGUCUCAACUAUGACACGCAAAACGCGUGCUCCGUUGAAAGGAGUUUAUCAUG, the “polymerase ribozyme fitness (log ratio)” value is ≤ -4.2.

With GGAUCUUCUCGAUGUAACAAAAAAGAGAAAUCUGCCACAAAGCUUGAGAGCAUCUUCAGAUGCAGAGGCGGCAGCCUUCGGUGGCUCGAUAGCGCCAACGUUCUCAACUAUGACACGCAAAACGCGCGCUCCGUUGAAUGGAGUUUAUCAUG, the “polymerase ribozyme fitness (log ratio)” value was -4.16.

As to GGAUCUUCUCGAUGUAACAAAAAAGACAAAUCUGUCACAAAGCUUGAGAGCAUCUUCUGAUGCAGAGGCGGCAGCCUUCGGUGGCGCGAUAGAGCCAACGUUCUCAACUAUGACACGCAAAACGCGUGCUCCGUUGAAUGGAGUUUAUCAUG, the “polymerase ribozyme fitness (log ratio)” value is ≤ -4.2.

Consider GGAUCUUCUCGAUGUAACAAAAAAGACAAAUCUGCCACAAAGCUUGAGAGCAUCUUGGGAUGCAGAGGCGGUAGCCUUCGGUGGCGCGAUAGCGCCAACGUUCUCAACUAUGACACGCAAAACGCGUGCUCCGUUGAAUGGAGUUUGUGAUG, for which the “polymerase ribozyme fitness (log ratio)” value was ≤ -4.2.

On to GGAUCUUCUCGAUGUAAAAAAAAAGACCAAUCUGCCACUAAGCUUGAGAGCUUCAUCCGAAGCAGAGGCGGCAGCCUUCGGUGGCGCGAUAGCGACAACGUUCUCAACUAUGACACGCAAAACGCGUGCUCCGUUGAAUGGAGUUUAUCAUG, for which the “polymerase ribozyme fitness (log ratio)” value was ≤ -4.2.

As for GGAUCUUCUCGAUGUAACAAAAAAGACAAAUCUGGCACAAAGCUUGAGAGCAUCAUCGGAUGCAGAGGCGGCAGCCUUCGGUGGCGCCAUAGCGCCAACGUUCUCAAUUAUGACACGCAAAACGCGUGCUCCGUUGAAUGGAGUUGAUCAUG, the “polymerase ribozyme fitness (log ratio)” value was ≤ -4.2.

In the case of GGAUCUUCUCGAUGUAACAAAAAAGAAAAAUCUGCCUCAAAGCUUGAGAGCAUUUUCGGAUGCAGAAGCGGCAGCCUUCGGUGGCGCGAUAGCUCCAACGUUCUGAACUAUGACACGCAAAACGCGUGCUCCGUUGAAUGGAGUUUAUCAUG, the “polymerase ribozyme fitness (log ratio)” value was ≤ -4.2.

For the variant GGAUCUUCUCGAUGUAACAAAAAAGACAAAUCUGCCAUAAAGUUUGAGAGCAUCGUCGGAUGCAGAGGCGGCAGCCUUCGGUGGCGCGAUAGCUCCAACGUCCUCAACUAUGACACGCAAAACGCGUGCUCCGUUGAAUGGAGUUUAUCAUG, the “polymerase ribozyme fitness (log ratio)” value is ≤ -4.2.

For the variant GGAUCUUCUCGAUGUAAUAAAAAAGACAAAUAUGCCACAAAGCUUGAGAGCAUCUGCGGAGGCAGAGGCGGCAGCCUUCGGUGGCGCGAUAGCGCCAACGUUCUCAACUAUGACACGCAAAACACGUGCUCCGUUGAAUGGAGUUUAUCAUG, the “polymerase ribozyme fitness (log ratio)” value is ≤ -4.2.

Take GGAUCUUCUCGAUGUAAUAAACAAGACAAAUCUGCCACACAGCUUGAGAGCAACUUCGGAUGCAGAGGCGGCAGACAUCGGUGGCGCGAUAGCCCCAACGUUCUCAACUAUGACACUCGAAACGCGUGCUCCGUUGAAUGGAGUUUAUGAUG: the “polymerase ribozyme fitness (log ratio)” value is ≤ -4.2.

Take GGAUCUUCUCGAUGUAAGCAAAAAGACAAAUCUGCCACAAAGCUUGAGAGCAUAUUCGGGUGCAGAGGCGGCAGCCUUCGGUGGGGCGAUAGCGCCAACGUUCUCAACUAUGACACGCAAAACGUGUGCUCCGUUGAAUGCAGUUUAUAAUG: the “polymerase ribozyme fitness (log ratio)” value is ≤ -4.2.

As to GGAUCUUCUCGAUGUAAUAAAAAAGACAAAUCUGCCACAAACCCUGAGAGCAUCUUCGGAUGCAGAGGCGGCAGCCUUCGGGGGAGCGAUAGCGCCAACGUUCUCAACUAUGACACGCAAAACGCGUGCUCCGUUGAAUGGAGUUUAUCAUG, the “polymerase ribozyme fitness (log ratio)” value is ≤ -4.2.

For GGAUCUUCUCGAUGUAACAAAAAAGACAAAUCUGCCACAAAGCUUGAGAGCAUCUUCGGAUGCAGAGGCGGCAGCCUUCGGUGGGGCGAUAGCGCCAACGUUCUCAACUAUGACACGCAAAACGCGUGCUCCGUUUAAUGGAGUUUAUCAUG, the “polymerase ribozyme fitness (log ratio)” value is ≤ -4.2.

Take GGAUCUUCUCGAUGUAACAAAAAAGACAAAUCUGCCACAAAGCUUGAGAGCAUCUUCGGAUGCAGAGGCGGCAGCCUUCGGUGGGGCGAUAGCGCCAACGUUAUCAACUAUGACACGCAAAACGCGUGCUCCGUUGAAUGGAGUUUAUCAUG: the “polymerase ribozyme fitness (log ratio)” value was ≤ -4.2.

With GGAUCUUCUCGAUGUAAAAUAAAACACAAAUCUGCUACAAGGCUUGAGGGCAUCUUCGGAUGCAGAGGCGGCAGCCUUCGGUUGCGCGAUAGCGGAAACGUUCUCAACUAUGACAAGCAAAACGCGUGCUCCGUUGAAUGGAGUUUAUCAUG, the “polymerase ribozyme fitness (log ratio)” value was ≤ -4.2.

Turning to GGAUCUUCUCGAUGUAACAAAAAAGACAAAUCUGCCACAAAGCUUGAGAGCAUCUUCGGAUGCAGAGGCGGCAGCCUUCGGUGGCGCGAUAGCGCCAACGUUCUCAACUGUGACACCCAAAACGCGUGCUCCGUUGAAUGGAGUUUAUCAUG, the “polymerase ribozyme fitness (log ratio)” value was ≤ -4.2.

For the variant GGAUCUUCUCGAUGUAACAAAAAAGACAAAUCUGCCACAAAGCUUGAGAGCAUCUUUGGAUGCAGAGGCGGCAGUCUUCGGUGGCGCGAUAGUGCCAACGUUCUCAACUAUGACACGCAAAACGCGUGCUGCGUUGAAUGGAGUUUAUCAUG, the “polymerase ribozyme fitness (log ratio)” value was ≤ -4.2.

For the variant GGAUCUUCUCGAUGUAAGAAAAAAGACAAAUCUGCCACAAAGCUUGAGAGCAACUUCGGAUGCAGAGGCGGCAGCCUUCGGUGGCGCGAUAGUGCCAACGUUCUCAACGAUGACACGCAAAACGCGUGCUCCGUUGAAUGGAGUUUAUCAUG, the “polymerase ribozyme fitness (log ratio)” value was ≤ -4.2.
